Consider 21 substances from FireProtDB.

The mark [1] stands for this setting: Homo sapiens, pH 7.2, 25 °C, GdnHCl, CD, Phosphate 100 mM.
Setting [2] is: Homo sapiens, pH 7.2, 25 °C, GdnHCl, Fluorescence, Phosphate 100 mM.
[3] abbreviates: Homo sapiens, pH 8, 25 °C, GdnHCl, Fluorescence, Sodium phosphate 50mM, transition: 2, reversible: yes.
[4] abbreviates: Homo sapiens, pH 7.5, 23 °C, GdnHCl, CD, HEPES 20 mM, reversible: Unknown.
Setting [5] is: Homo sapiens, pH 7.4, 25 °C, GdnHCl, CD, potassium phosphate 10 mM, KCl 50 mM, reversible: Unknown.
[6] abbreviates: Homo sapiens, pH 6.5, 25 °C, GdnHCl, CD, MES 0.01 M, NaCl 0.09 M, reversible: yes.
[7] abbreviates: Homo sapiens, pH 6.5, 25 °C, GdnHCl, Fluorescence, MES 10 mM, NaCl 90 mM, reversible: no.
The mark [8] stands for this setting: Homo sapiens, pH 7.5, 25 °C, Urea, CD, Sodium phosphate 50 mM, NaCl 0.1 M, reversible: yes.
The mark [9] stands for this setting: Escherichia coli (strain K12), pH 7, 25 °C, GdnHCl, CD, Potassium phosphate 10 mM, reversible: Unknown.
Setting [10] is: Escherichia coli (strain K12), pH 7, 25 °C, GdnHCl, CD, sodium phosphate 30 mM, KCl 0.1 M, reversible: Unknown.
[11] abbreviates: Escherichia coli (strain K12), pH 7, 25 °C, GdnHCl, Fluorescence, sodium phosphate 30 mM, KCl 0.1 M, reversible: Unknown.
[12] abbreviates: Escherichia coli (strain K12), pH 7, 25 °C, GdnHCl, CD, phosphate 50 mM, reversible: yes.
Setting [13] is: Escherichia coli (strain K12), pH 7, 25 °C, Urea, CD, phosphate 50 mM, reversible: yes.
[14] abbreviates: Escherichia coli (strain K12), pH 7.4, Thermal, DSC, CGH-10, reversible: no.
Where [15] appears, read: Escherichia coli (strain K12), pH 5.7, 20 °C, GdnHCl, CD, Potassium phosphate 10 mM, reversible: yes.
[16] abbreviates: Escherichia coli (strain K12), pH 8.7, 25 °C, Urea, CD, Tris 0.375 M, reversible: Unknown.
Setting [17] is: Homo sapiens, pH 8, 25 °C, Urea, Fluorescence, Tris-acetate 50 mM, reversible: yes.

Values joined by “and” are separate entries in the source; they are usually repeats but may differ in a detail not shown here. Identical values can stand only once.

Consider “Apolipoprotein A-I wild type (sequence left out)”, for which the unfolding free energy (Homo sapiens, pH 7.8, 25 °C, GdnHCl, CD, phosphate 20 mM, NaCl 10 micro M, reversible: yes) turned out to be 2.5 kcal/mol.
Usually Tm stands for the temperature at which the thermal transition is half complete. With “Cellular retinoic acid-binding protein 1 wild type (chain not printed)”, the melting temperature (Tm) (Bos taurus, pH 7, Thermal, CD, potassium phosphate 10 mM, reversible: Unknown) came out at 54 °C.
On to “Fibroblast growth factor 1 wild type (no sequence given)”, for which, under setting [1], the denaturant m value was 3.6 kcal/mol/M, the “denaturant midpoint (higher = more stable)” value (“denaturant midpoint” for short) was determined as 1.8 M and the unfolding free energy stood at 6.5 kcal/mol. Under setting [2], the denaturant m value amounted to 4.7 kcal/mol/M, the “denaturant midpoint” value came out at 0.9 M and the unfolding free energy was 4.5 kcal/mol.
Turning to “Fibroblast growth factor 1 wild type (sequence left out)”, under setting [3], the denaturant m value is 4.97 kcal/mol/M, the “denaturant midpoint” value was found to be 1.23 M and the unfolding free energy is 6.11 kcal/mol.
For the substance Insulin wild type (chain not printed), the unfolding free energy under setting [4] was 4.5 kcal/mol.
As to Insulin wild type (letters omitted), under setting [5], the denaturant m value worked out at 0.84 kcal/mol/M, the “denaturant midpoint” value was determined as 5.3 M and the unfolding free energy is 4.4 kcal/mol. For the same substance, under setting [4], the “denaturant midpoint” value was found to be 5 M.
For the substance Insulin wild type (no sequence given), the Tm (Homo sapiens, pH 1.8, Thermal, DSC, HCl, reversible: no) turned out to be 60 °C. The unfolding free energy (Homo sapiens, pH 2, 23 °C, GdnHCl, CD, Tris/MES/acetate 50 mM/25 mM/25 mM/, reversible: Unknown) is 5.81 kcal/mol.
Consider Insulin wild type (sequence left out), for which, for the setting “Homo sapiens, pH 7.5, 23 °C, GdnHCl, CD, HEPES 20 mM, reversible: yes”, the unfolding free energy worked out at 4.5 kcal/mol.
For the substance “Interleukin-1 beta wild type (chain not printed)”, under setting [6], the “denaturant midpoint” value stood at 1.26 M and the unfolding free energy was determined as 7.03 kcal/mol.
For the substance “Interleukin-1 beta wild type (letters omitted)”, under setting [7], the “denaturant midpoint” value amounted to 1.35 M and the unfolding free energy was determined as 9.1 kcal/mol.
For the substance “Interleukin-6 wild type (no sequence given)”, under setting [8], the “denaturant midpoint” value is 5.5 M and the unfolding free energy turned out to be 5 kcal/mol.
For “Interleukin-6 wild type (sequence left out)”, the unfolding free energy (Homo sapiens, pH 8.6, 25 °C, GdnHCl, CD, Tris-HCl 0.1 M, reversible: yes) was determined as 4.59 kcal/mol.
On to “Small ubiquitin-related modifier 2 wild type (sequence left out)”, for which the midpoint of thermal melting (Tm) is, setting by setting: (Homo sapiens, pH 7, Thermal, CD, Phosphate 50 mM, transition: 2) 71.9 °C and 70.9 °C; (Homo sapiens, pH 7, Thermal, Fluorescence, Phosphate 50 mM, transition: 2) 73.1 °C and 72.5 °C.
As to “Somatotropin wild type (no sequence given)”, for the setting “Homo sapiens, pH 5.5, Thermal, CD, Sodium phosphate 50 mM, reversible: Unknown”, the Tm was 82 °C.
For the substance “Thioredoxin 1 wild type (chain not printed)”, under setting [9], the denaturant m value was determined as 3.2 kcal/mol/M, the “denaturant midpoint” value was found to be 2.5 M and the unfolding free energy worked out at 7.9 kcal/mol. Moreover, under setting [10], the “denaturant midpoint” value came out at 2.5 M and the unfolding free energy amounted to 9.6 kcal/mol. Besides, under setting [11], the “denaturant midpoint” value worked out at 2.5 M and the unfolding free energy was determined as 9.6 kcal/mol.
As to “Thioredoxin 1 wild type (letters omitted)”, under setting [12], the “denaturant midpoint” value stood at 2.6 M and the unfolding free energy was found to be 8.6 kcal/mol. Further, under setting [13], the “denaturant midpoint” value was found to be 6.7 M and the unfolding free energy was found to be 8.7 kcal/mol. The Tm (Escherichia coli (strain K12), pH 7, Thermal, CD, phosphate 50 mM, reversible: yes) was 82 °C.
With “Thioredoxin 1 wild type (no sequence given)”, where the note is “Escherichia coli (strain K12), pH 7.4, 25 °C, GdnHCl, DSC, CGH-10, reversible: no”, the unfolding free energy was 8.9 kcal/mol. Besides, under setting [14], the midpoint of thermal melting (Tm) was 87.3 °C and the “unfolding enthalpy (calorimetric)” value came to 112 kcal/mol.
As to “Thioredoxin 1 wild type (sequence left out)”, under setting [15], the denaturant m value is 3.7 kcal/mol/M, the “denaturant midpoint” value stood at 2.61 M and the unfolding free energy is 9.5 kcal/mol. Also, under “Escherichia coli (strain K12), pH 8.7, 23 °C, Urea, Absorbance, Tris 0.1 M, KCl 0.2 M, reversible: yes”, the unfolding free energy was 6.1 kcal/mol and 9.7 kcal/mol.
For “Thioredoxin 1 wild type (sequence not shown)”, the unfolding free energy (Escherichia coli (strain K12), pH 7, 25 °C, GdnHCl, CD, Potassium phosphate 50 mM, reversible: Unknown) was determined as 8.9 kcal/mol; the unfolding free energy (Escherichia coli (strain K12), pH 8.7, 23 °C, GdnHCl, CD, Tris-HCl 0.1 M, KCl 0.2 M, reversible: yes) is 5 kcal/mol and 8.1 kcal/mol; the unfolding free energy under setting [16] is 10 kcal/mol and 6.5 kcal/mol. Also, under setting [16], the “denaturant midpoint” value was 7.4 M and 4.4 M.
As to “Triosephosphate isomerase wild type (sequence left out)”, under setting [17], the denaturant m value stood at 1.72 kcal/mol/M and the unfolding free energy is 19.3 kcal/mol.
For the substance “U1 small nuclear ribonucleoprotein A wild type (chain not printed)”, the unfolding free energy (Homo sapiens, pH 5.5, 25 °C, Urea, CD, sodium acetate 5 mM, reversible: Yes) was 6 kcal/mol.
